Some of the results follow.

B1: chr5:149847740:149847841:+|3pUTR|ENSG00000155846|unk|total|mutant (ssRNA)
RNA: GGGAGUUCUACAGUCCGACGAUCAUUGAACAAAGCUGCUUCUGUCUGUGAGUUUCCAUGGUGUUGACGUUCCACUGCCACAUCCGUGUCCUCGCUUCCAACGGGUUGUCCCGGGUGCACCUCGAAGUGCCGGGUCCGUCACCCCAACAGAGGAUUGAGCAUCA
B2: chr16:16142165:16142266:+|3pUTR|ENSG00000103222|msi1|FALSE|unique (ssRNA)
RNA: GGGAGUUCUACAGUCCGACGAUCAUUGAUGUGGGGUAAAUAUUAAGGAGAUGGCCUCAUGGGAAUUUGACCUUGACUAGAAAUAGAGACUGAGAGUGAGCAACCAGCUGGAAGGUACUAUGCCAGUCCUAGCAGAAAAAUGUGCAACAGAGGAUUGAGCAUCA
B3: chr15:40903593:40903694:+|3pUTR|ENSG00000104142|msi1|FALSE|unique (ssRNA)
RNA: GGGAGUUCUACAGUCCGACGAUCCAGUAGAGGCCCUUCACCUGGAGAAGUCAGAAAUCUGACCCAAUUCCACCCCCUGCCUCUAGCACCUCUUCUGUCCCUGUCAUUCCCCACACACGUCCUGUUCACCUCGAGAGAGAGAGACAACAGAGGAUUGAGCAUCA
B4: chr7:139716074:139716127:-|CDS|ENSG00000064393|msi1_unk|FALSE|overlapping (ssRNA)
RNA: GGGAGUUCUACAGUCCGACGAUCGAAGCAAAACAAGUUUAGCCCCUUGCCCCUCAAAUACAUUCGCCCAGUUCUCCAGCAGGUAGCCACAGCCCUGAUGAAACUCAAAAGCCUAGGUCUUAUCCACGCUGACCUCAAACCAGACAACAGAGGAUUGAGCAUCA
B5: ENSG00000117868:stop:overlap|stop_codon|ENSG00000117868|stop_codon|NA|stop_codon (ssRNA)
RNA: GGGAGUUCUACAGUCCGACGAUCAAGGCUGGACCCAGUGGUAUGACCUCACGGAAGAUGGGACGAGGCCUCAGGCGAUGACAUAGCCGCAGCAGGCAGGAGGCGUCCUCUUCAGCGUAGCUCUCCACCUCUACCCGGAACACACAACAGAGGAUUGAGCAUCA
B6: ENSG00000070961:be:win_3451|CDS|ENSG00000070961|bound_else_gene|NA|bound_elsewhere_windowed (ssRNA)
RNA: GGGAGUUCUACAGUCCGACGAUCAGGAUAGAAGAUUCAGAGCCUCAUAUCCCCCUUAUUGAUGACACUGAUGCCGAAGAUGAUGCUCCUACAAAACGUAACUCCAGUCCUCCACCCUCUCCCAACAAAAAUAACAAUGCUGUUCAACAGAGGAUUGAGCAUCA
B7: chr2:48379045:48379146:+|3pUTR|ENSG00000170802|unk|total|mutant (ssRNA)
RNA: GGGAGUUCUACAGUCCGACGAUCCCUUAUCCUCUUUUCUGAUGCCGCAUAAAAAUUGUCCCGGUUUGAGUUAUAACUGCCAGCCGAUGACCAGUCACAAGUGAACCACUUCUCAGUUGCCAAUCUUUGCUCAUAUUAAAAACACAACAGAGGAUUGAGCAUCA
B8: chr9:24545423:24545649:-|CDS|ENSG00000205442|control|control|control (ssRNA)
RNA: GGGAGUUCUACAGUCCGACGAUCCCUGCCCCUCUCAGCCUUCCAUGGAGUCAAAGGCUGUUUAGAAUGUGACCCCAAAUUUAUAGAGGAUGUUGGCUCCUUGCUGGGAAAUCUGAUACCUUCAGAAGUCCCCGGCCGAACUCACAACAGAGGAUUGAGCAUCA
B9: ENSG00000071537:stop:overlap|stop_codon|ENSG00000071537|stop_codon|NA|stop_codon (ssRNA)
RNA: GGGAGUUCUACAGUCCGACGAUCAUACAUUUGGAGCUCUUGGGGGCAAUCUAAUAGCCCACAUGGUUUUGGUAAGUAGACUUUAGUGGAAGGCUAAUAAUAUUAACAUCAGAAGAAUUUGUGGUUUAUAGCGGCCACAACUUUCAACAGAGGAUUGAGCAUCA
B10: chr19:12791443:12791544:+|5pUTR|ENSG00000171223|unk|FALSE|unique (ssRNA)
RNA: GGGAGUUCUACAGUCCGACGAUCGGGGGGCGCGGGGGCCCGGCUCCGGCGACGGCCAAUCGGAGCGCACUUCCGUGGCUGACUAGCGCGGUAUAAAGGCGUGUGGCUCAGGCUGAGCGGCUGGGACCUUGAGAGCGGCCAGGCCAACAGAGGAUUGAGCAUCA
B11: chr12:12643182:12643283:+|3pUTR|ENSG00000111269|unk|total|mutant (ssRNA)
RNA: GGGAGUUCUACAGUCCGACGAUCCUGGAGUUGUGCACAGCACCGCAGCCCGUGGGCCUGGCUGGGGGUGCAGAAGGGCAGGGCCGUUCUUUCCAUUUCCCCUUGCAGCUACACUUACUUUCUCCCUGACUACCAAAUGGAGUGCAACAGAGGAUUGAGCAUCA
B12: chr6:116593178:116593279:+|3pUTR|ENSG00000111832|unk|FALSE|unique (ssRNA)
RNA: GGGAGUUCUACAGUCCGACGAUCUAUGAUUUUCCUUUCUUUUUUUCUAAGAAAAAAUUAUUUUCAGGAGAAUAUUCUUCUGAUAGCUUUCAUCAUUGAACUUAAUAAACUGACCUUAAAAUUUCAAAUAUAAAAUGUUCAAGGCAACAGAGGAUUGAGCAUCA
B13: chr11:108106880:108106981:+|3pUTR|ENSG00000166266|msi1|FALSE|unique (ssRNA)
RNA: GGGAGUUCUACAGUCCGACGAUCUUAGUGGUAUGGCAAUAAGACACUUCAGAGGCUAUCUUAACCUCUGAAUACCCAUCUUCUAGUUUAAAGACAGAGACAUCCCAUCUGGAAAAUGUUAACUUGUGUUGCCAUCUCGUUGCCCAACAGAGGAUUGAGCAUCA
B14: chr7:130166276:130166377:-|3pUTR|ENSG00000146842|msi1|FALSE|unique (ssRNA)
RNA: GGGAGUUCUACAGUCCGACGAUCUCUCUGAGCCACUGACUCUUCUGAAAUAAAAUACACAUGGGUGUAUGUUACAGACUCUUUAGAUUUAACAGAAAAUGUAGCUGUUAUGAAAUGUAAUUGUAAAAAUAUGUCCCGUAUCUUCAACAGAGGAUUGAGCAUCA

The target in this assay is T1, UNK ZnF1-6 (called full-length) (human, UniProt Q9C0B0 30-357).
T1 sequence: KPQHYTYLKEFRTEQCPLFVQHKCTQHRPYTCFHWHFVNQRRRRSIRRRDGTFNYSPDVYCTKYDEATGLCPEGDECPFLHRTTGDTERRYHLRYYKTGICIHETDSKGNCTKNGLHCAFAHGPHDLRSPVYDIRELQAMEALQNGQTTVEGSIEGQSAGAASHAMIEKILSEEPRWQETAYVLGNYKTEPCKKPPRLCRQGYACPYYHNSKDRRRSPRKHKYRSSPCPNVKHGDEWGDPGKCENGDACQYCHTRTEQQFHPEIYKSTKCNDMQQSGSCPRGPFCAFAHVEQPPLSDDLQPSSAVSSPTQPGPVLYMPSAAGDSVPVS
The assay can be described thus: nsRBNS (natural sequence RNA bind-n-seq); RBNS binding buffer (assumed for nsRBNS): 25 mM Tris pH 7.5, 150 mM KCl, 3 mM MgCl2, 0.01% Triton X-100, 500 ug/ml BSA, 20 U/ml SUPERase-In, 4 C; UNK is unkempt and MSI1 is Musashi-1; names of the RNAs are library labels; protein concentration not given here; high values mean tight binding.
The molecule B1 showed a binding signal of 0.672 enrichment R.

In turn, B2 showed a binding signal of 0.81 enrichment R.

In turn, B3 returned a binding signal of 0.779 enrichment R.

Molecule B4 came in with a binding signal of 0.979 enrichment R.

With B5, the binding signal is 0.843 enrichment R.

B6 yielded a binding signal of 0.813 enrichment R.

B7 gave a binding signal of 0.459 enrichment R.

For the molecule B8, the binding signal was determined as 0.901 enrichment R.

Molecule B9 yielded a binding signal of 0.418 enrichment R.

Take B10: the binding signal was 1.33 enrichment R.

B11 displayed a binding signal of 0.949 enrichment R.

Turning to B12, the binding signal was found to be 1.13 enrichment R.

Turning to B13, the binding signal was determined as 0.34 enrichment R.

As for B14, the binding signal worked out at 0.933 enrichment R.

The values above are taken from PMC12136788.
